{"source": "paper PMC12820563", "about": "“FoxP3 forms a head-to-head dimer in vivo and stabilizes its multimerization on adjacent microsatellites”", "note": "Some of the results follow.", "data": [{"molecular_target": "T1, MBP-FoxP1dN (Mus musculus, UniProt P58462 326-579)", "T1 sequence": "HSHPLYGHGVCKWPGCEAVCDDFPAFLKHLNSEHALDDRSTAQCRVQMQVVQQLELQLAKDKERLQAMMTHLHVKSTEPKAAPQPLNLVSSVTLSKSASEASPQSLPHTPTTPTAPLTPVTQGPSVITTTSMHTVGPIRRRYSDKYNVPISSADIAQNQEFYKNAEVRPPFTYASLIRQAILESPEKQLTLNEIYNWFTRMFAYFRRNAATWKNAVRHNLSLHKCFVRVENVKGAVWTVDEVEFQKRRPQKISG", "test": "PD-seq (MBP pull-down with sequencing); 20 mM Tris-HCl pH 7.5, 100 mM NaCl, 1.5 mM MgCl2, 0.4 uM protein, 0.1 uM dsDNA library, 30 min, room temperature, amylose pull-down; high values mean tight binding", "conditions": "protein: recombinant; tags: His6-MBP; chain copies: 2; dsDNA, one strand shown", "summary_of_the_method": "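The N-terminus-lacking fragment of mouse FoxP3 or FoxP1 carried a His6-MBP tag and was expressed in E. coli. At 0.4 µM it was incubated with 0.1 µM Klenow-filled degenerate double-stranded DNA library for 30 min at room temperature in Tris pH 7.5 buffer with NaCl and MgCl2, and complexes were caught on amylose resin, washed three times, released with proteinase K, PCR-barcoded and Illumina-sequenced. Binding is reads-per-million enrichment of pull-down over input with replicates pooled.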", "values": [{"sequence": "GATGATTGTTCTCCCAGCTGATGAATTTGGGATTTCGAGTAAACAAATTTTCCTAATCTTTCTGTTCAAGCGCCATCTAC", "binding signal": "0.854 RPM ratio (pull-down/input)"}, {"sequence": "GATGATTGTTCTCCCAGCTGATGAATTTAACTGATCGAGTAAACAAATTTTCCTAATCTTTCTGTTCAAGCGCCATCTAC", "binding signal": "0.923 RPM ratio (pull-down/input)"}, {"sequence": "GATGATTGTTCTCCCAGCTGATGAATTGTTCGGCTCGAGTAAACAAATTTTCCTAATCTTTCTGTTCAAGCGCCATCTAC", "binding signal": "0.929 RPM ratio (pull-down/input)"}, {"sequence": "GATGATTGTTCTCCCAGCTGATGAATTTTCCGGTTCGAGTAAACAAATTTTCCTAATCTTTCTGTTCAAGCGCCATCTAC", "binding signal": "0.879 RPM ratio (pull-down/input)"}, {"sequence": "GATGATTGTTCTCCCAGCTGATGAATTGATTTAGTCGAGTAAACAAATTTTCCTAATCTTTCTGTTCAAGCGCCATCTAC", "binding signal": "1.17 RPM ratio (pull-down/input)"}, {"sequence": "GATGATTGTTCTCCCAGCTGATGAATTGATCAGCTCGAGTAAACAAATTTTCCTAATCTTTCTGTTCAAGCGCCATCTAC", "binding signal": "0.92 RPM ratio (pull-down/input)"}, {"sequence": "GATGATTGTTCTCCCAGCTGATGAATTTCATCAGTCGAGTAAACAAATTTTCCTAATCTTTCTGTTCAAGCGCCATCTAC", "binding signal": "0.833 RPM ratio (pull-down/input)"}, {"sequence": "GATGATTGTTCTCCCAGCTGATGAATTAACCCCTTCGAGTAAACAAATTTTCCTAATCTTTCTGTTCAAGCGCCATCTAC", "binding signal": "0.932 RPM ratio (pull-down/input)"}, {"sequence": "GATGATTGTTCTCCCAGCTGATGAATTCCGGAGGTCGAGTAAACAAATTTTCCTAATCTTTCTGTTCAAGCGCCATCTAC", "binding signal": "0.779 RPM ratio (pull-down/input)"}, {"sequence": "GATGATTGTTCTCCCAGCTGATGAATTCTTCTCCTCGAGTAAACAAATTTTCCTAATCTTTCTGTTCAAGCGCCATCTAC", "binding signal": "0.815 RPM ratio (pull-down/input)"}, {"sequence": "GATGATTGTTCTCCCAGCTGATGAATTCCGCCAATCGAGTAAACAAATTTTCCTAATCTTTCTGTTCAAGCGCCATCTAC", "binding signal": "0.869 RPM ratio (pull-down/input)"}, {"sequence": "GATGATTGTTCTCCCAGCTGATGAATTGGGCGTTTCGAGTAAACAAATTTTCCTAATCTTTCTGTTCAAGCGCCATCTAC", "binding signal": "0.864 RPM ratio (pull-down/input)"}, {"sequence": "GATGATTGTTCTCCCAGCTGATGAATTGCAACCATCGAGTAAACAAATTTTCCTAATCTTTCTGTTCAAGCGCCATCTAC", "binding signal": "1.45 RPM ratio (pull-down/input)"}, {"sequence": "GATGATTGTTCTCCCAGCTGATGAATTTCAGACGTCGAGTAAACAAATTTTCCTAATCTTTCTGTTCAAGCGCCATCTAC", "binding signal": "0.832 RPM ratio (pull-down/input)"}, {"sequence": "GATGATTGTTCTCCCAGCTGATGAATTACCTCCTTCGAGTAAACAAATTTTCCTAATCTTTCTGTTCAAGCGCCATCTAC", "binding signal": "0.955 RPM ratio (pull-down/input)"}, {"sequence": "GATGATTGTTCTCCCAGCTGATGAATTGGACTTATCGAGTAAACAAATTTTCCTAATCTTTCTGTTCAAGCGCCATCTAC", "binding signal": "0.864 RPM ratio (pull-down/input)"}, {"sequence": "GATGATTGTTCTCCCAGCTGATGAATTGGATTAATCGAGTAAACAAATTTTCCTAATCTTTCTGTTCAAGCGCCATCTAC", "binding signal": "0.97 RPM ratio (pull-down/input)"}, {"sequence": "GATGATTGTTCTCCCAGCTGATGAATTCCACTTTTCGAGTAAACAAATTTTCCTAATCTTTCTGTTCAAGCGCCATCTAC", "binding signal": "0.903 RPM ratio (pull-down/input)"}, {"sequence": "GATGATTGTTCTCCCAGCTGATGAATTTCTCCGCTCGAGTAAACAAATTTTCCTAATCTTTCTGTTCAAGCGCCATCTAC", "binding signal": "0.834 RPM ratio (pull-down/input)"}, {"sequence": "GATGATTGTTCTCCCAGCTGATGAATTTGTTCGTTCGAGTAAACAAATTTTCCTAATCTTTCTGTTCAAGCGCCATCTAC", "binding signal": "1.12 RPM ratio (pull-down/input)"}, {"sequence": "GATGATTGTTCTCCCAGCTGATGAATTATGTCGATCGAGTAAACAAATTTTCCTAATCTTTCTGTTCAAGCGCCATCTAC", "binding signal": "1.01 RPM ratio (pull-down/input)"}, {"sequence": "GATGATTGTTCTCCCAGCTGATGAATTCTGGAGATCGAGTAAACAAATTTTCCTAATCTTTCTGTTCAAGCGCCATCTAC", "binding signal": "0.812 RPM ratio (pull-down/input)"}, {"sequence": "GATGATTGTTCTCCCAGCTGATGAATTCGACATCTCGAGTAAACAAATTTTCCTAATCTTTCTGTTCAAGCGCCATCTAC", "binding signal": "0.877 RPM ratio (pull-down/input)"}, {"sequence": "GATGATTGTTCTCCCAGCTGATGAATTGTGTCGCTCGAGTAAACAAATTTTCCTAATCTTTCTGTTCAAGCGCCATCTAC", "binding signal": "1.08 RPM ratio (pull-down/input)"}, {"sequence": "GATGATTGTTCTCCCAGCTGATGAATTCGGGCAATCGAGTAAACAAATTTTCCTAATCTTTCTGTTCAAGCGCCATCTAC", "binding signal": "1.01 RPM ratio (pull-down/input)"}, {"sequence": "GATGATTGTTCTCCCAGCTGATGAATTTGTTAATTCGAGTAAACAAATTTTCCTAATCTTTCTGTTCAAGCGCCATCTAC", "binding signal": "1.38 RPM ratio (pull-down/input)"}, {"sequence": "GATGATTGTTCTCCCAGCTGATGAATTTCAACTCTCGAGTAAACAAATTTTCCTAATCTTTCTGTTCAAGCGCCATCTAC", "binding signal": "0.737 RPM ratio (pull-down/input)"}, {"sequence": "GATGATTGTTCTCCCAGCTGATGAATTAAACCCATCGAGTAAACAAATTTTCCTAATCTTTCTGTTCAAGCGCCATCTAC", "binding signal": "1.02 RPM ratio (pull-down/input)"}, {"sequence": "GATGATTGTTCTCCCAGCTGATGAATTTTGCAGTTCGAGTAAACAAATTTTCCTAATCTTTCTGTTCAAGCGCCATCTAC", "binding signal": "0.964 RPM ratio (pull-down/input)"}, {"sequence": "GATGATTGTTCTCCCAGCTGATGAATTCATAGGTTCGAGTAAACAAATTTTCCTAATCTTTCTGTTCAAGCGCCATCTAC", "binding signal": "0.826 RPM ratio (pull-down/input)"}, {"sequence": "GATGATTGTTCTCCCAGCTGATGAATTCAAGCTTTCGAGTAAACAAATTTTCCTAATCTTTCTGTTCAAGCGCCATCTAC", "binding signal": "0.905 RPM ratio (pull-down/input)"}, {"sequence": "GATGATTGTTCTCCCAGCTGATGAATTTCATTTCTCGAGTAAACAAATTTTCCTAATCTTTCTGTTCAAGCGCCATCTAC", "binding signal": "0.901 RPM ratio (pull-down/input)"}, {"sequence": "GATGATTGTTCTCCCAGCTGATGAATTGCGGGTGTCGAGTAAACAAATTTTCCTAATCTTTCTGTTCAAGCGCCATCTAC", "binding signal": "0.984 RPM ratio (pull-down/input)"}, {"sequence": "GATGATTGTTCTCCCAGCTGATGAATTAGGCGTCTCGAGTAAACAAATTTTCCTAATCTTTCTGTTCAAGCGCCATCTAC", "binding signal": "0.865 RPM ratio (pull-down/input)"}, {"sequence": "GATGATTGTTCTCCCAGCTGATGAATTTTGGTGCTCGAGTAAACAAATTTTCCTAATCTTTCTGTTCAAGCGCCATCTAC", "binding signal": "0.883 RPM ratio (pull-down/input)"}, {"sequence": "GATGATTGTTCTCCCAGCTGATGAATTTCTCGAATCGAGTAAACAAATTTTCCTAATCTTTCTGTTCAAGCGCCATCTAC", "binding signal": "0.934 RPM ratio (pull-down/input)"}, {"sequence": "GATGATTGTTCTCCCAGCTGATGAATTATTATAGTCGAGTAAACAAATTTTCCTAATCTTTCTGTTCAAGCGCCATCTAC", "binding signal": "1.17 RPM ratio (pull-down/input)"}, {"sequence": "GATGATTGTTCTCCCAGCTGATGAATTAGCTGTATCGAGTAAACAAATTTTCCTAATCTTTCTGTTCAAGCGCCATCTAC", "binding signal": "1.04 RPM ratio (pull-down/input)"}, {"sequence": "GATGATTGTTCTCCCAGCTGATGAATTTATGACGTCGAGTAAACAAATTTTCCTAATCTTTCTGTTCAAGCGCCATCTAC", "binding signal": "1.14 RPM ratio (pull-down/input)"}, {"sequence": "GATGATTGTTCTCCCAGCTGATGAATTCATACTTTCGAGTAAACAAATTTTCCTAATCTTTCTGTTCAAGCGCCATCTAC", "binding signal": "0.982 RPM ratio (pull-down/input)"}]}]}
